Experimental data as given in publication doi:10.1101/847806 (bioRxiv, 2019).

Target: UBE2D2 (human, UniProt P62837)
Assay: ITC

Chain of UniProt P62837 (P62837 whole entry): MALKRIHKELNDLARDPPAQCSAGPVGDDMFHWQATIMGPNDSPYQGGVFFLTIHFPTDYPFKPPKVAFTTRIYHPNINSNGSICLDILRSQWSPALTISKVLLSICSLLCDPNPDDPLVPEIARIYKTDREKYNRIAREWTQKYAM

binding result: binds
B1: OTUB1 (C91S), catalytically inactive mutant (enzyme)
chain: not shown
